# According to the supplement of paper PMC4604168 (melanoma cell lines):
# The list shows a part of the results. Most values come without repeats; read them as rough.
# Tested on: A101D
# Experiment: cell count relative to DMSO control; melanoma cells; higher = more viable cells
# Settings: library dose: standard library concentration; 72 h
# 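Note: cells treated in 1,536-well plates, then fixed and DAPI-stained, with nuclei counted from automated high-throughput microscope images.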
row,SMILES,cell count
1,"CCN(CC)CCNC(=O)c1c(C)[nH]c(/C=C2\C(=O)Nc3ccc(F)cc32)c1C [sunitinib] + NCC(=O)Nc1ccc(-n2nc(C(F)(F)F)cc2-c2ccc3c(ccc4ccccc43)c2)cc1 [OSU03012] (first compound 2 µM, partner dose 5 µM)",65.9%
2,"CCN(CC)CCNC(=O)c1c(C)[nH]c(/C=C2\C(=O)Nc3ccc(F)cc32)c1C [sunitinib] + Clc1ccc(Nc2nnc(Cc3ccncc3)c3ccccc23)cc1 [vatalanib] (first compound 2 µM, partner dose 10 µM)",57.9%
3,"C[C@]1(O)C[C@@H](c2nc(-c3ccc4ccc(-c5ccccc5)nc4c3)c3c(N)nccn32)C1 + C#Cc1cccc(Nc2ncnc3cc(OCCOC)c(OCCOC)cc23)c1 [erlotinib] (first compound 2 µM, partner dose 4 µM)",60.5%
4,"COc1cc([C@@H]2c3cc4c(cc3[C@@H](O[C@@H]3O[C@@H]5CO[C@@H](C)O[C@H]5[C@H](O)[C@H]3O)[C@H]3COC(=O)[C@H]23)OCO4)cc(OC)c1O [etoposide] + COCC[n+]1c2c(n(Cc3cnccn3)c1C)C(=O)c1ccccc1C2=O [YM155] (first compound 0.1 µM, partner dose 0.002 µM)",54%
5,"C[C@]1(O)C[C@@H](c2nc(-c3ccc4ccc(-c5ccccc5)nc4c3)c3c(N)nccn32)C1 + Cn1nnc2c(C(N)=O)ncn2c1=O [temozolomide] (first compound 2 µM, partner dose 10 µM)",75.5%
6,"CCN(CC)CCNC(=O)c1c(C)[nH]c(/C=C2\C(=O)Nc3ccc(F)cc32)c1C [sunitinib] + Nc1cccc2c1CN(C1CCC(=O)NC1=O)C2=O [lenalidomide] (first compound 2 µM, partner dose 5 µM)",62.6%
7,"Cn1cnc2c(F)c(Nc3ccc(Br)cc3Cl)c(C(=O)NOCCO)cc21 [selumetinib] + O=C(Nc1cccc(Cl)c1)Nc1ncc(CCNc2ncnc3ccsc23)s1 [SNS314] (first compound 0.075 µM, partner dose 0.004 µM)",68.6%
8,"C[C@]1(O)C[C@@H](c2nc(-c3ccc4ccc(-c5ccccc5)nc4c3)c3c(N)nccn32)C1 + O=C(O)c1ccc2c(c1)nc(Nc1cccc(Cl)c1)c1ccncc12 [CX4945] (first compound 2 µM, partner dose 2 µM)",87.3%
9,"COc1cc([C@@H]2c3cc4c(cc3[C@@H](O[C@@H]3O[C@@H]5CO[C@@H](C)O[C@H]5[C@H](O)[C@H]3O)[C@H]3COC(=O)[C@H]23)OCO4)cc(OC)c1O [etoposide] + C[C@@H]1CCN(C(=O)CC#N)C[C@@H]1N(C)c1ncnc2[nH]ccc12 [CP690550] (first compound 0.1 µM, partner dose 5 µM)",94.6%
10,"CCN(CC)CCNC(=O)c1c(C)[nH]c(/C=C2\C(=O)Nc3ccc(F)cc32)c1C [sunitinib] + COCC[n+]1c2c(n(Cc3cnccn3)c1C)C(=O)c1ccccc1C2=O [YM155] (first compound 2 µM, partner dose 0.002 µM)",67.7%
11,"Cn1cnc2c(F)c(Nc3ccc(Br)cc3Cl)c(C(=O)NOCCO)cc21 [selumetinib] + CC(=O)O[C@@]12CO[C@@H]1C[C@H](O)[C@@]1(C)C(=O)[C@H](O)C3=C(C)[C@@H](OC(=O)[C@H](O)[C@@H](NC(=O)OC(C)(C)C)c4ccccc4)C[C@@](O)([C@@H](OC(=O)c4ccccc4)[C@H]21)C3(C)C [Docetaxel] (first compound 0.075 µM, partner dose 0.0005 µM)",67.5%
12,"CCN(CC)CCNC(=O)c1c(C)[nH]c(/C=C2\C(=O)Nc3ccc(F)cc32)c1C [sunitinib] + NC1(c2ccc(-c3nc4ccn5c(=O)[nH]nc5c4cc3-c3ccccc3)cc2)CCC1 [MK2206] (first compound 2 µM, partner dose 2 µM)",43.9%
13,"C[C@]1(O)C[C@@H](c2nc(-c3ccc4ccc(-c5ccccc5)nc4c3)c3c(N)nccn32)C1 + CCCS(=O)(=O)Nc1ccc(F)c(C(=O)c2c[nH]c3ncc(Cl)cc23)c1F [PLX4720] (first compound 2 µM, partner dose 0.4 µM)",75.5%
14,"CCN(CC)CCNC(=O)c1c(C)[nH]c(/C=C2\C(=O)Nc3ccc(F)cc32)c1C [sunitinib] + CC(C)(C)c1cnc(CSc2cnc(NC(=O)C3CCNCC3)s2)o1 [SNS-032] (first compound 2 µM, partner dose 0.05 µM)",40.1%
15,"Cn1cnc2c(F)c(Nc3ccc(Br)cc3Cl)c(C(=O)NOCCO)cc21 [selumetinib] + O=C(O)c1ccc2c(c1)nc(Nc1cccc(Cl)c1)c1ccncc12 [CX4945] (first compound 0.075 µM, partner dose 2 µM)",70.3%
16,"CCN(CC)CCNC(=O)c1c(C)[nH]c(/C=C2\C(=O)Nc3ccc(F)cc32)c1C [sunitinib] + O=C(O)[C@@H]1[O][Sb](=[O])([O][Sb]2(=[O])[O][C@H]([C@H](O)CO)[C@H](O)[C@H](C(=O)O)[O]2)[O][C@H]([C@H](O)CO)[C@@H]1O [stibogluconate] (first compound 2 µM, partner dose 10 µM)",62.6%
17,"Cn1cnc2c(F)c(Nc3ccc(Br)cc3Cl)c(C(=O)NOCCO)cc21 [selumetinib] + OCCn1cc(-c2cnc3nnn(Cc4ccc5ncccc5c4)c3n2)cn1 [PF04217903] (first compound 0.075 µM, partner dose 5 µM)",72.4%
18,"COc1cc([C@@H]2c3cc4c(cc3[C@@H](O[C@@H]3O[C@@H]5CO[C@@H](C)O[C@H]5[C@H](O)[C@H]3O)[C@H]3COC(=O)[C@H]23)OCO4)cc(OC)c1O [etoposide] + NC1(c2ccc(-c3nc4ccn5c(=O)[nH]nc5c4cc3-c3ccccc3)cc2)CCC1 [MK2206] (first compound 0.1 µM, partner dose 2 µM)",80.8%
19,"C[C@]1(O)C[C@@H](c2nc(-c3ccc4ccc(-c5ccccc5)nc4c3)c3c(N)nccn32)C1 + Cn1c(Nc2ccc(C(F)(F)F)cc2)nc2cc(Oc3ccnc(-c4ncc(C(F)(F)F)[nH]4)c3)ccc21 [CHIR265] (first compound 2 µM, partner dose 0.4 µM)",60%
20,"Cn1cnc2c(F)c(Nc3ccc(Br)cc3Cl)c(C(=O)NOCCO)cc21 [selumetinib] + CN(c1ncccc1CNc1nc(Nc2ccc3c(c2)CC(=O)N3)ncc1C(F)(F)F)S(C)(=O)=O [PF562271] (first compound 0.075 µM, partner dose 0.4 µM)",79.1%
21,"Cn1cnc2c(F)c(Nc3ccc(Br)cc3Cl)c(C(=O)NOCCO)cc21 [selumetinib] + NC(=O)Nc1cc(-c2cccc(F)c2)sc1C(=O)N[C@H]1CCCNC1 [AZD7762] (first compound 0.075 µM, partner dose 0.1 µM)",63.2%
22,"C[C@]1(O)C[C@@H](c2nc(-c3ccc4ccc(-c5ccccc5)nc4c3)c3c(N)nccn32)C1 + O=C(O)c1ccc(-c2c[nH]c3ncc(-c4ccccc4)cc23)cc1C1CCCC1 [GSK650394] (first compound 2 µM, partner dose 0.8 µM)",93.4%
23,"C[C@]1(O)C[C@@H](c2nc(-c3ccc4ccc(-c5ccccc5)nc4c3)c3c(N)nccn32)C1 + NCC(=O)Nc1ccc(-n2nc(C(F)(F)F)cc2-c2ccc3c(ccc4ccccc43)c2)cc1 [OSU03012] (first compound 2 µM, partner dose 5 µM)",69.3%
24,"COc1cc([C@@H]2c3cc4c(cc3[C@@H](O[C@@H]3O[C@@H]5CO[C@@H](C)O[C@H]5[C@H](O)[C@H]3O)[C@H]3COC(=O)[C@H]23)OCO4)cc(OC)c1O [etoposide] + CO[C@@H]1[C@H](N(C)C(=O)c2ccccc2)C[C@H]2O[C@]1(C)n1c3ccccc3c3c4c(c5c6ccccc6n2c5c31)C(=O)NC4 [Midostaurin] (first compound 0.1 µM, partner dose 0.4 µM)",68.8%
25,"CCN(CC)CCNC(=O)c1c(C)[nH]c(/C=C2\C(=O)Nc3ccc(F)cc32)c1C [sunitinib] + Cc1cc(Nc2cc(N3CCN(C)CC3)nc(/C=C/c3ccccc3)n2)n[nH]1 [ENMD2076] (first compound 2 µM, partner dose 0.2 µM)",71.7%
26,"C[C@]1(O)C[C@@H](c2nc(-c3ccc4ccc(-c5ccccc5)nc4c3)c3c(N)nccn32)C1 + C[C@@H]1CCN(C(=O)CC#N)C[C@@H]1N(C)c1ncnc2[nH]ccc12 [CP690550] (first compound 2 µM, partner dose 5 µM)",112%
27,"CCN(CC)CCNC(=O)c1c(C)[nH]c(/C=C2\C(=O)Nc3ccc(F)cc32)c1C [sunitinib] + CC(=O)O[C@@]12CO[C@@H]1C[C@H](O)[C@@]1(C)C(=O)[C@H](O)C3=C(C)[C@@H](OC(=O)[C@H](O)[C@@H](NC(=O)OC(C)(C)C)c4ccccc4)C[C@@](O)([C@@H](OC(=O)c4ccccc4)[C@H]21)C3(C)C [Docetaxel] (first compound 2 µM, partner dose 0.0005 µM)",55.8%
28,"COc1cc([C@@H]2c3cc4c(cc3[C@@H](O[C@@H]3O[C@@H]5CO[C@@H](C)O[C@H]5[C@H](O)[C@H]3O)[C@H]3COC(=O)[C@H]23)OCO4)cc(OC)c1O [etoposide] + Cc1cc(Nc2cc(N3CCN(C)CC3)nc(/C=C/c3ccccc3)n2)n[nH]1 [ENMD2076] (first compound 0.1 µM, partner dose 0.2 µM)",65.5%
